Results are given in words; binding and its absence hold for the method and conditions named. Binding seen in cells or lysates may run through a third protein. Some results given as binding are weak or reduced against the parent protein; the word gives no strength. For some assays here: Sequences can lack the tags named with a protein.

Protein sequences, listed by entry. Tags and fused reporters are not part of them. Lines headed by an entry give the natural chain unless they say otherwise; changes in a name come on top. Chains listed by the source or under a name are the forms on record and can include a tag or linker. Residues count along the entry.
UniProt P18848: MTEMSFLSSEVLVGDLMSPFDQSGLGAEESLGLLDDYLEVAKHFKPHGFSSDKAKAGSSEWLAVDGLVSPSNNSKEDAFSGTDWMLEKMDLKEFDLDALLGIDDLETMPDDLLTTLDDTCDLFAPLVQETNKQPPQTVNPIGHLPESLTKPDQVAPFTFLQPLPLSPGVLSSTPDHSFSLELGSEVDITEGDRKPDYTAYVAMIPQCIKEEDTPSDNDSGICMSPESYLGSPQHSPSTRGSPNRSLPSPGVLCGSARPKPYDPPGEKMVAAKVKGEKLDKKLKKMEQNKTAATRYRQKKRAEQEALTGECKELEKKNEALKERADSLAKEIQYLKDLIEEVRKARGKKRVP
Myc-tagged full-length RET (long isoform, RET 51), wild type (P07949, residues 29-1114): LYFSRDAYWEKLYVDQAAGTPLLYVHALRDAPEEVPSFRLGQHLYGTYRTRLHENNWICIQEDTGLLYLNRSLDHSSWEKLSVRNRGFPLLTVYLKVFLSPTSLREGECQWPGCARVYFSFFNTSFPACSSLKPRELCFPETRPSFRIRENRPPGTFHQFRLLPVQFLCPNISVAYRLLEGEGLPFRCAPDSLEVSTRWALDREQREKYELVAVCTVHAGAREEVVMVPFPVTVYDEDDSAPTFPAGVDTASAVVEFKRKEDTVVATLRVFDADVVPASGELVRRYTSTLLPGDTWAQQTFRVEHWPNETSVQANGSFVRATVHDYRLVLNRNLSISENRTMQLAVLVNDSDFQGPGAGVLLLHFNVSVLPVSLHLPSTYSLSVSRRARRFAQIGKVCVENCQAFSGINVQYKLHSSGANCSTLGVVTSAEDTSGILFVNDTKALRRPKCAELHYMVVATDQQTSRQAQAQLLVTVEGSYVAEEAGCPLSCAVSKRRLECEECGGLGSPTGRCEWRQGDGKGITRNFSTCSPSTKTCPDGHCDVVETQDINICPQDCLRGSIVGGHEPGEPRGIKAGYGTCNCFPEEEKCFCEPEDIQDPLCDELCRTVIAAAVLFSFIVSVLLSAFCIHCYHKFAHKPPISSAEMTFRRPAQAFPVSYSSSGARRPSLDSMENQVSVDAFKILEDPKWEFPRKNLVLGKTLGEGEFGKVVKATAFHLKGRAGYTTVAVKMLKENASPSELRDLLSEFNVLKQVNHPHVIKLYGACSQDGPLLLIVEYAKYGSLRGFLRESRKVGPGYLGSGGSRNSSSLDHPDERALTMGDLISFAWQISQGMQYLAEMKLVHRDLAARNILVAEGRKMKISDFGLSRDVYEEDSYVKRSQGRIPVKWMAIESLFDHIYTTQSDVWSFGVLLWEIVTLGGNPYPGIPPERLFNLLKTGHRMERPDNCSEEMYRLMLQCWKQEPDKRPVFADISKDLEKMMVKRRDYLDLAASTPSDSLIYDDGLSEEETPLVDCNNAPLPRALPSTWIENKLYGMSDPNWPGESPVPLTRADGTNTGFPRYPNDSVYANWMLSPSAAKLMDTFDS
Myc-tagged RET-C634W (P07949, form named): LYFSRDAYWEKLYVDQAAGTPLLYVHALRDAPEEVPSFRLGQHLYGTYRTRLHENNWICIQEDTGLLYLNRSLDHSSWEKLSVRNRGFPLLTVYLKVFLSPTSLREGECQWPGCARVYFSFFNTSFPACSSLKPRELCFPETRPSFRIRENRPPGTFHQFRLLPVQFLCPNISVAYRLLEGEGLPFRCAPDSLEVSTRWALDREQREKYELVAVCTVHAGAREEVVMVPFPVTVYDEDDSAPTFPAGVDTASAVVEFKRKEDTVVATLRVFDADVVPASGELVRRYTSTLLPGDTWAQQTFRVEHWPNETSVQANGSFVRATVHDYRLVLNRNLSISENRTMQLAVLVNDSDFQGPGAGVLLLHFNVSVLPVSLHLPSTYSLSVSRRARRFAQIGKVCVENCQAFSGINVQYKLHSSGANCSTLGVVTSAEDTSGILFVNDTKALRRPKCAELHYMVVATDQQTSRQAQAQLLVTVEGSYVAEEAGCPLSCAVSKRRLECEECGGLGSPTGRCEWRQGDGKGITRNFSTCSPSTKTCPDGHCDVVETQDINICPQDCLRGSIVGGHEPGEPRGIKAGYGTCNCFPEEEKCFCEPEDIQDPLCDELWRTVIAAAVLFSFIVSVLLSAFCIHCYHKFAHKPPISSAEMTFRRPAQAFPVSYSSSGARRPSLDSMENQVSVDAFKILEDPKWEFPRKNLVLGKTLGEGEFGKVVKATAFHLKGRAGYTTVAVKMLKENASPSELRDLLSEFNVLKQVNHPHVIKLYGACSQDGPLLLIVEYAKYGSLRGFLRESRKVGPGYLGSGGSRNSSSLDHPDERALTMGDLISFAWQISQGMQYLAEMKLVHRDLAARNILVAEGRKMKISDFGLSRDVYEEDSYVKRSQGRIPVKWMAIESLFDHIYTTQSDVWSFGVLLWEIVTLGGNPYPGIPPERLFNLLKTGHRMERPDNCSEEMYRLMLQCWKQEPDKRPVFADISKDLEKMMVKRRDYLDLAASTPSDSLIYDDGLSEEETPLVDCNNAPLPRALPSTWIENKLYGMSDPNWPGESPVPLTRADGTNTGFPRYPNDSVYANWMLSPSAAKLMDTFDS
Myc-tagged RET-M918T (P07949, form named): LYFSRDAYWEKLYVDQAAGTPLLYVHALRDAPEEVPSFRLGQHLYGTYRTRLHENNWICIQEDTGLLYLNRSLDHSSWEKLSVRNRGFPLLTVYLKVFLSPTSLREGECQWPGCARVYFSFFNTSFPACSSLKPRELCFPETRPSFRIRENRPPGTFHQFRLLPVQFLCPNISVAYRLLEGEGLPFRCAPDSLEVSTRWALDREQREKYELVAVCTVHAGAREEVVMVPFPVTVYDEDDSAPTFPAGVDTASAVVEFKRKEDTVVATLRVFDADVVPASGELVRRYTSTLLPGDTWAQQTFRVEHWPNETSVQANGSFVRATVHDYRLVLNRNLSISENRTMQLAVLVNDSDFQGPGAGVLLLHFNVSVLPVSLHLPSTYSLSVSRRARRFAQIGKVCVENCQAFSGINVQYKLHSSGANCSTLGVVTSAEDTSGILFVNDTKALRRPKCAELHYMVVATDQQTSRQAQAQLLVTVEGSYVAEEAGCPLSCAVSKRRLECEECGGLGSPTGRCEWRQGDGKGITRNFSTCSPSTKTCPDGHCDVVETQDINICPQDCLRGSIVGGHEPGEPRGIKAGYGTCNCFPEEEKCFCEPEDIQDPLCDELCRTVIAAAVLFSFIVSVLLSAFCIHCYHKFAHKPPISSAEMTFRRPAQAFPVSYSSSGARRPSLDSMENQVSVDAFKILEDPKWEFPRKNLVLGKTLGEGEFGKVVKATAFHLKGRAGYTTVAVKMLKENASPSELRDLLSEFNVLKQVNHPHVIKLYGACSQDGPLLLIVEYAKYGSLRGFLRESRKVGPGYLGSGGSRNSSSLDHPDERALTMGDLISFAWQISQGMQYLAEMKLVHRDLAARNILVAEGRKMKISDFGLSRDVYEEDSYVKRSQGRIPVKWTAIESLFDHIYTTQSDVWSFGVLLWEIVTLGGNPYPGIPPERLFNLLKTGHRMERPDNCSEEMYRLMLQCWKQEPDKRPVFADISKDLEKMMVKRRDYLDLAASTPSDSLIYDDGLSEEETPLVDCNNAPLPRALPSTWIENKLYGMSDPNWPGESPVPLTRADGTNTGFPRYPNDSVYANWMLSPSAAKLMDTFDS
Myc-tagged RET-G93S (P07949, form named): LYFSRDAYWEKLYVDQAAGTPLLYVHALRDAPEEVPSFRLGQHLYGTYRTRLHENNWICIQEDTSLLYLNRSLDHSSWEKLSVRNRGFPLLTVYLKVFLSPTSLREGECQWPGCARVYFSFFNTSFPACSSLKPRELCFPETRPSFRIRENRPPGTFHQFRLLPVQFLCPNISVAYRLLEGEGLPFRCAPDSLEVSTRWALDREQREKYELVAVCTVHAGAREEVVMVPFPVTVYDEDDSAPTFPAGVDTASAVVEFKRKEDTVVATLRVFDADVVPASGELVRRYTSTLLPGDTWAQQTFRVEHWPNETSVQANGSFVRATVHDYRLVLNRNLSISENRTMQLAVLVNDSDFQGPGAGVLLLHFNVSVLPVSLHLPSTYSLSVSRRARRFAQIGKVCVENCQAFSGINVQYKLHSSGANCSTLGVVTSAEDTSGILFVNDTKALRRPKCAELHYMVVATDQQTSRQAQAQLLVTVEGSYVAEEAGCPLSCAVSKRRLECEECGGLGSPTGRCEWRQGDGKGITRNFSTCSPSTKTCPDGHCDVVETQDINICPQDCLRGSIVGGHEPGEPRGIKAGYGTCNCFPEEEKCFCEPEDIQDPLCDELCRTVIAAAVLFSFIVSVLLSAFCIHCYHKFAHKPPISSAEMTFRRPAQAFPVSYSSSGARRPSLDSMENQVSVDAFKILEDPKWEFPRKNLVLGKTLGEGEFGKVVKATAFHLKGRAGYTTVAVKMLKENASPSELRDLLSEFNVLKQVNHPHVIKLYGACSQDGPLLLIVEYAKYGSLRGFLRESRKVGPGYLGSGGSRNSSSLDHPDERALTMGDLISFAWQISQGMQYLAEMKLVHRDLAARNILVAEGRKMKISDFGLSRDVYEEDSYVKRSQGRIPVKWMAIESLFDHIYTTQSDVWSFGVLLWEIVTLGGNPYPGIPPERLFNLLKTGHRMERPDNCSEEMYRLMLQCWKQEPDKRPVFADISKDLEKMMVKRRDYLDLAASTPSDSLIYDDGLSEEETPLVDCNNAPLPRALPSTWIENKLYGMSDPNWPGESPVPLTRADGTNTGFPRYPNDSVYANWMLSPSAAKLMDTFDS
Myc-tagged RET-K758M (P07949, form named): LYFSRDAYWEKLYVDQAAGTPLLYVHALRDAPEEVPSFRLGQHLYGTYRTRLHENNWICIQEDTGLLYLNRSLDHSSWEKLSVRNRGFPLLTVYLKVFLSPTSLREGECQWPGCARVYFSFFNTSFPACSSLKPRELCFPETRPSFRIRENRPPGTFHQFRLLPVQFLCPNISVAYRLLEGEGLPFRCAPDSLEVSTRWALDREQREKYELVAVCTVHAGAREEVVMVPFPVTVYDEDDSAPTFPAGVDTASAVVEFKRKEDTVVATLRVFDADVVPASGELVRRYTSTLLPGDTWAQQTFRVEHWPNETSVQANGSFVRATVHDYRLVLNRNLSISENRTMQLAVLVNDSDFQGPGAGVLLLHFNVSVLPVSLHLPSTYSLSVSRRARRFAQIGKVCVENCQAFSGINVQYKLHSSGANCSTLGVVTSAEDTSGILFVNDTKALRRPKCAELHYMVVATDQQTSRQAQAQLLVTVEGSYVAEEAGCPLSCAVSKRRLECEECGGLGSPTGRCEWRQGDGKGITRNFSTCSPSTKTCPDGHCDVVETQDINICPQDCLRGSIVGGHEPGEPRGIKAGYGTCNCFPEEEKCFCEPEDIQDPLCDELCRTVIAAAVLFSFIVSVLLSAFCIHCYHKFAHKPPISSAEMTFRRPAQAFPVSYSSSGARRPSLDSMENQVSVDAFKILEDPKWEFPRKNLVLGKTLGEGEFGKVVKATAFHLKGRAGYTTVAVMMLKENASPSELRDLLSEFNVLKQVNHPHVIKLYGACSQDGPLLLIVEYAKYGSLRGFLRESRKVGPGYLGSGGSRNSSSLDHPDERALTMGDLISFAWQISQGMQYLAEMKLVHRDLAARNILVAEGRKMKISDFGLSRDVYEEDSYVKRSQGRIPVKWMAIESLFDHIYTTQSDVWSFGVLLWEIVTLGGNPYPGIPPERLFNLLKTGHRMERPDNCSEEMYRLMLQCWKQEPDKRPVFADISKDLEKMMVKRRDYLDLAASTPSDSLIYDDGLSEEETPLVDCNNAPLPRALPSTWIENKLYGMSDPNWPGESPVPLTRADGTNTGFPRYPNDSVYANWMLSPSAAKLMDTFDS
UniProt P11021, residues 19-654: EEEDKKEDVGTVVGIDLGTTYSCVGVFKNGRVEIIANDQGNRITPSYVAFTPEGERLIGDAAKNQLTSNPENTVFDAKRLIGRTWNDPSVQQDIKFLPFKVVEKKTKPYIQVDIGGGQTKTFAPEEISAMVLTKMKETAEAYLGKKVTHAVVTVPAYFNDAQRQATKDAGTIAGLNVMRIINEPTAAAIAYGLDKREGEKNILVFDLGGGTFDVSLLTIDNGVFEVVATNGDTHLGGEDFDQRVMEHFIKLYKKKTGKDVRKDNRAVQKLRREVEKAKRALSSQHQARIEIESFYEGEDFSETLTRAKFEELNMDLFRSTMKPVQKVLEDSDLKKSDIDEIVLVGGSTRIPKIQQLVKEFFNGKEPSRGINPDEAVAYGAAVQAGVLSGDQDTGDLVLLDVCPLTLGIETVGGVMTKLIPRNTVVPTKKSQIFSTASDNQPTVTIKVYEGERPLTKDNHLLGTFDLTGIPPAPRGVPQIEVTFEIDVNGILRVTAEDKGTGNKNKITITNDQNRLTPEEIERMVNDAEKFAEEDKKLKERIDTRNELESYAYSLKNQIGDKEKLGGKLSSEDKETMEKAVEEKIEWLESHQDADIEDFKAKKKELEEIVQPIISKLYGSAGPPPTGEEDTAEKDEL

Binding data for seven molecules are collected here from paper PMC6735522.

The target of one assay is recombinant GST-ATF4 (UniProt P18848). In words: pull-down; GST or recombinant GST-ATF4 immobilized on glutathione-agarose beads, incubated at 4 °C for 2 h with whole-cell extracts of U-2 OS cells expressing WT RET or mutants; immunoblot; only the target purified. In general terms: Immunoblotting shows a protein as a band on a membrane.
Assay [1] has as its target T1, HA-Cbl-c (UniProt Q9ULV8).
T1 sequence: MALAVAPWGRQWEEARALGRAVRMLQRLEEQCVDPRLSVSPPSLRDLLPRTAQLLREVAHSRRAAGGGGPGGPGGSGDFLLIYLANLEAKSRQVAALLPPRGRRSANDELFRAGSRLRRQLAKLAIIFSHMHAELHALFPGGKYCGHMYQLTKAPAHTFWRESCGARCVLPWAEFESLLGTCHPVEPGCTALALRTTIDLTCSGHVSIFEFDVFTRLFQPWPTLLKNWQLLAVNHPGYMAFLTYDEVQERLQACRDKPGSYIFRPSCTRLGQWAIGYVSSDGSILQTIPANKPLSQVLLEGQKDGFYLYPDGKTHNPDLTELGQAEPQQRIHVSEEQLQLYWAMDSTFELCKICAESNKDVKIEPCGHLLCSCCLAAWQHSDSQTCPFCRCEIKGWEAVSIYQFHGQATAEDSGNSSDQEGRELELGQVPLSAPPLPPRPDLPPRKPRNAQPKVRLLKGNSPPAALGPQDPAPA
The assay can be described thus: co-IP; U-2 OS/BTZ cells with HA-Cbl-c, with or without FLAG-ATF4, treated with 20 μM MG132 for 4 h; endogenous RET found with HA-Cbl-c.

In assay [2] the target is T1, HA-Cbl-c. In words: co-IP; U-2 OS/BTZ cells with HA-Cbl-c after knockdown of ATF4, treated with 20 μM MG132 for 4 h; endogenous RET with HA-Cbl-c.
In assay [3] the target is Myc-tagged full-length RET (long isoform, RET 51), wild type (UniProt P07949). In words: co-IP; HEK293T cells with ATF4, RET and GRP78 (Figure S6D); competition.
Assay [4] shares this target. In words: co-IP; U-2 OS cells co-transfected with FLAG-ATF4, Myc-RET and HA-GRP78; extracts precipitated with anti-Myc antibody; competition.
For assay [5] the target is unchanged. The assay can be described thus: co-IP; U-2 OS cells transfected with HA-GRP78 and Myc-RET or Myc-RET mutants; MG132 20 μM for 4 h (Figure 7B); lysates precipitated with anti-Myc antibody.
Another assay addresses Myc-tagged RET-G93S (UniProt P07949). Described as above.
In assay [6] the target is Myc-tagged full-length RET (long isoform, RET 51), wild type (UniProt P07949). The assay can be described thus: co-IP; HEK293T cells with ectopic HA-Cbl-c, FLAG-ATF4 and Myc-RET (Figure S5G); also with Cbl-c overexpressed or knocked down (Figure S5H); bait not told.

In the case of “Myc-tagged RET-C634W (from UniProt P07949 29-1114) (receptor)”, in the assay with recombinant GST-ATF4, the binding entry is given as “binds”.

For “Myc-tagged full-length RET (long isoform, RET 51), wild type (from UniProt P07949-1 29-1114) (receptor)”, the binding entry in the assay with recombinant GST-ATF4 is listed as “binds”.

In the case of “endogenous RET of U-2 OS/BTZ cells (from UniProt P07949 29-1114) (receptor)”, the values for the binding result with HA-Cbl-c [1] and in the assay with HA-Cbl-c [2] were “binds” and “binds weakly”, respectively.

With “Myc-tagged RET-M918T (from UniProt P07949 29-1114) (receptor)”, in the assay with recombinant GST-ATF4, the binding entry is “binds”.

Regarding HA-GRP78 (from UniProt P11021 19-654), the binding entry (in assay [3]; in assay [4]; in assay [5]; in the assay with Myc-tagged RET-G93S) was “binds” throughout.

With “Myc-tagged RET-K758M (from UniProt P07949 29-1114) (receptor)”, the binding entry in the assay with recombinant GST-ATF4 was “no binding”.

B1: HA-Cbl-c (enzyme, UniProt Q9ULV8 1-474)
chain: T1 sequence
Regarding B1, the binding result in assay [6] is on record as “binds”.
